# “Also recorded” adds a separate entry of the source.
# B1: 2A2: mouse monoclonal anti-ceramide IgM, ATCC Patent Deposit Designation PTA-13418 (antibody, listed as Mouse sp., V domains shown)
# VH: EVQLQQSGTVLARPGASVKMSCKASGYTFTNYWMHWVKQRPVQGLEWIGAIYPGDSDTSYNQKFKGKAKLTAVTSTSTAFMELSSLTNEDSAVYYCTGLYYGYDWGQGTTLTVSS
# VL: DVLMTQTPLTLSVTIGQPASISCKSSQSLIDSDGKTFLNWLLQRPGQSPKRLIYLVSKLDSGVPDRFTGSGSGTDFTLKISRVEAEDLGLYYCWQGTHFPYTFGGGTKLEIK
# modifications: IgM; Mouse 2A2 Variable Heavy Chain (VH); Mouse 2A2 Variable Light Chain (VL)
# Legend:
# [1] = test system: Jurkat cells; assay: Radiation-induced Jurkat cell apoptosis inhibition; assay type: cell-based, human; conditions: preincubation 25-100 micrograms/mL
# Procedure: Jurkat cells adjusted to 1×10^6 cell/ml in RPMI medium containing 10% FBS were administered h2A2 or m2A2 anti-ceramide antibody, and exposed to 10 Gy gamma irradiation. Cells were fixed after 16 hours, and apoptosis was quantified by Hoeschst bisbenzimide stain.
# The humanization of the mouse 2A2 antibody is described in the Examples below. […] In vitro biologic activity of h2A2 IgG1 was determined using human Jurkat T lymphocytes that were exposed to 10 Gy ionizing radiation in the presence or absence of h2A2 IgG1. m2A2 IgM was used as a positive control in these experiments. […] FIG. 7.
# [2] = test system: C57BL/6 mice; assay: Crypt microcolony assay (surviving crypts) after irradiation; assay type: in vivo, mouse; conditions: 15 Gy WBI
# Procedure: Male 6-10 week old C57Bl/6 mice were administered h2A2 monoclonal antibody 15 minutes prior to 15 Gy full body irradiation. Animals were sacrificed 3.5 days following irradiation, and tissues were processed for the crypt microcolony assay. Proximal jejunum sections were harvested for sectioning. Intestinal sections were stained with H&E, and surviving crypts were quantified according to the method of Withers and Elkund. Multiple sections from at least 3 mice were scored per data point.
# The lethality of GI stem cell clonogens is best assessed by the number of crypts surviving at 3.5 days after radiation exposure, which decreases exponentially as the dose increases (C. S. Potten and M. Loeffler, Development 110 (4), 1001 (1990), H. R. Withers, Cancer 28 (1), 75 (1971), and J. G. Maj, F. Paris, A. Haimovitz-Friedman et al., Cancer Res 63, 4338 (2003)). Crypts that contain surviving stem cells proliferate at an accelerated rate, producing typical regenerative crypts that split or bud to generate new crypts, until the intestinal mucosa regains a normal architecture. […] At higher doses, however, massive stem cell clonogen loss may lead to a near total collapse of the crypt-villus system, mucosal denudation and animal death from the GI syndrome. […] A dose of 15 Gy was used in the experiments described herein. Subtotal was used for survival studies, as described in the next paragraph
# TBI (total body irradiation) was used only for protection studies, SBI for mitigation studies was delivered with a Shepherd Mark-I unit (Model 68, SN643) operating ^137Cs sources. The dose rate was 2.12 Gy/min. To collect small intestinal samples, mice were sacrificed by hypercapnia asphyxiation, and 2.5 cm segments of the proximal jejunum were obtained at 2 cm from the ligament of Trietz. Tissue samples were fixed by overnight incubation in 4% neutral buffered formaldehyde and embedded in paraffin blocks. […]
# [3] = test system: C57BL/6 mice; assay: Toxicity of antibody administration in mice; assay type: in vivo, mouse
# Description: (§1) 100% of animals receiving 2A2 were saved from radiation GI syndrome lethality at 15 Gy total body irradiation. In contrast, 100% of animals receiving irrelevant IgM (isotype control) or no antibody (vehicle only) consistently died with denuded intestinal mucosa and clinical evidence of radiation GI syndrome lethality. At the LD50 dose of 14 Gy total body irradiation, 2A2 plus hematopoietic stem cell transplant (HSCT) saved 100% of irradiated animals.
# [4] = test system: C57BL/6 mice; assay: Radiation-induced intestinal endothelial apoptosis in vivo; design: species or system mouse
# Description: as §1
# [5] = ELISA binding to BSA-conjugated C16 ceramide
# Procedure: Maxisorp ELISA plates were coated overnight at 4° C. with BSA-conjugated to C16 carboxy-ceramide or BSA alone. Following blocking with 2 mg/ml non-fat milk solution, biotinylated h2A2 was added to the plate for 2 hrs at room temperature at the indicated concentration. Binding was determined following detection with HRP-conjugated streptavidin and quantification of signal by plate reader.
# ELISA was performed as described in FIG. 1. Binding of humanized IgG or mouse IgM was detected with anti-human HRP or anti-mouse HRP secondary antibody.
# The monoclonal antibodies, including 2A2, were made using methods known in the art and described in more detail in PCT/US08/62789. In order to make the antibody, a ceramide antigen was developed that was immunogenic enough to generate a strong antibody response from an inoculated host. […] OD was assessed following administration of HRP substrate at 650 nm. […]
# To confirm the binding affinity of h2A2 to ceramide, performed a series of ELISA assays were performed using C16 ceramide covalently bound to either bovine serum albumin (BSA) or ovalbumin (OVA) via a linkage at the terminal end of the fatty acid subunit of ceramide. Briefly, h2A2 was biotinylated, and antibody binding to microplates coated with BSA- or OVA-conjugated C16 ceramide was determined using horse-radish peroxidase labeled streptavidin.
# [6] = test system: C57BL/6 mice; assay: Survival after lethal irradiation (Radiation GI Syndrome), Kaplan-Meier; assay type: in vivo, mouse
# Procedure: Male C57BL/6 mice (6-8 weeks old) were placed in a ventilated Plexiglas restrainer with head/forepaws and hind legs/tail covered by lead shield, and exposed to 15.5 Gy or 16 Gy subtotal body irradiation (SBI) (Philips MG-324 X-ray unit at a dose rate of 118.3 cGy/min, 50 cm source to skin distance). Purified 2A2 IgM (1000 μs) was administered by intravenous tail-vein injection 24 hours following irradiation.
# TBI (total body irradiation) was used only for protection studies, SBI for mitigation studies was delivered with a Shepherd Mark-I unit (Model 68, SN643) operating ^137Cs sources. The dose rate was 2.12 Gy/min. To collect small intestinal samples, mice were sacrificed by hypercapnia asphyxiation, and 2.5 cm segments of the proximal jejunum were obtained at 2 cm from the ligament of Trietz. Tissue samples were fixed by overnight incubation in 4% neutral buffered formaldehyde and embedded in paraffin blocks. To evaluate intestinal tissue responses to radiation, transverse sections of the full jejunal circumference (5 micrometers thick) were obtained by microtomy from the paraffin blocks, adhered to polylysine-treated slides and deparaffinized by heating at 90 degrees Celsius for 10 minutes and at 60 degrees Celsius for 5 minutes, followed by two xylene washes for 5 minutes, and stained with hematoxylin and eosin according to a standard protocol. To determine the causes of death after TBI, autopsies were performed within 60 min of animal death or when terminally-sick animals displaying an agonal breathing pattern were sacrificed by hypercapnia asphyxiation. Tissue specimens were collected from all animals, fixed in formaldehyde, and stained with hematoxylin.
# Actuarial survival of animals was calculated by the product limit Kaplan-Meier method. Terminally sick animals displaying an agonal breathing pattern were sacrificed by hypercapnia asphyxiation and evaluated by necropsy to determine cause of death. Intestinal specimens were fixed in formaldehyde, and stained with hematoxylin.
molecule,measurement,setting,value
B1,inhibition of 8 Gy-induced apoptosis of Jurkat cells,[1],inhibited 8 Gy-induced apoptosis
same,dose achieving maximal protection of crypts,[2],"1,000 μg/25 g mouse"
same,"dose achieving maximal protection of crypts, per kg",[2],40 mg/kg
same,dose that increased the number of surviving crypts (P<0.05),[2]; antibody before irradiation,50 μg/25 g mouse
same,toxicity of administration,[3],without toxicity
same,reduction of peak endothelial apoptosis within the lamina propria microvasculature,"[4]; 1,000 μg/25 g mouse intravenous, 15 minutes prior to 15 Gy WBI",83%
same,endothelial cell apoptosis in vivo,"[4]; mouse, in vivo",dose dependently inhibited endothelial cell apoptosis in vivo
same,binding to ceramide (ELISA),[5]; BSA- or OVA-conjugated C16 ceramide vs BSA alone,bound to BSA-ceramide; also recorded: specific affinity for ceramide
same,binding to ceramide relative to comparator antibody (ELISA),"[5]; compared with m2A2, MID15B4 or control IgM",significantly more binding capacity of 2A2 vs. control IgM
same,irradiated animals saved,"[6]; 14 Gy total body irradiation (LD50), plus HSCT",100%
same,animals saved from radiation GI syndrome lethality,[6]; 15 Gy total body irradiation,100%
same,GI tracts protected,[6]; 17 Gy total body irradiation,50%
same,mice that succumbed dying with intact GI tracts,[6]; 17 Gy total body irradiation,33%
same,pretreated mice surviving ad infinitum,[6]; 17 Gy total body irradiation,25%
same,mouse survival,"[6]; antibody alone, 24 hours following 15.5 Gy SBI",improves mouse survival; also recorded: mouse survival was significantly improved
